Measurements as given in PubChem BioAssay AID624296 (National Center for Advancing Translational Sciences (NCATS), 2012).
About 9,900 (2.8%) of roughly 350,000 compounds were called active. The shares of active, inactive and inconclusive entries below differ from those in the screen. Calls follow the shape of the dose curve; as a rule, active = well fitted activation curve with a large enough effect; inconclusive = small, poorly fitted or top-dose-only effect; inactive = no such curve, though single readings can be large or run the other way. Potencies of inconclusive entries are left out as doubtful fits.
Potency is read from the fitted curve at half-maximal effect; tags tell the direction and shape of the fitted curve.

Assay: A quantitative high throughput screen for small molecules that induce DNA re-replication in MCF 10a normal breast cells. Also: nearly all actives have a fitted effect of over 50% in size. As to activity, positive = re-replication: % of control where 0% means no effect.
Conditions: MCF 10A DNA re-replication, Hoechst nuclear intensity, 48 h; activity, positive = re-replication: at 46.1 µM (top of the series)
For `COc1cc(NC(=O)C/C(C)=N/NC(=O)Cc2ccccc2)c(OC)cc1Cl`, the Potency was inconclusive [activator, partial curve, poor fit].
For `COc1ccc(NC(=O)COC(=O)c2c3c(nc4ccccc24)CCCC3)cc1`, the Potency was inconclusive [activator, single point].
For `CC(=O)c1ccc(NCCC(=O)c2ccccc2)cc1`, the “activity, positive = re-replication” value was inactive: 9.36%.
With `CC1=CC(=O)C=C(C)C1=NOc1ccccc1[N+](=O)[O-]` the Potency was inconclusive [activator, single point].
For `CCCn1cc(S(=O)(=O)c2ccc(Cl)cc2)c(=O)c2cc(OC)ccc21`, the Potency was inconclusive [activator, single point].
For `CC(=O)c1ccc(NC(=S)NCc2ccc(Cl)cc2Cl)cc1`, the “activity, positive = re-replication” value was inactive: 16%.
For `CC(=O)c1cccc(NC(=O)CSc2nnc(C(C)N(C)C)n2Cc2ccccc2)c1` (stereo not given), the Potency was inconclusive [activator, full curve, poor fit].
In the case of `CNC(=O)c1[nH]cnc1C(=O)Nc1ccc(Cl)cc1`, the “activity, positive = re-replication” value is reported as inactive: -49.8%.
With `O=C(c1sc2cc(F)ccc2c1Cl)N1CCN(c2ccccc2)CC1` the “activity, positive = re-replication” value was inactive: 4.63%.
For `CN(CC(=O)Nc1cccc(F)c1)C(=O)C1CCC(C(=O)N(C)CC(=O)Nc2cccc(F)c2)CC1` (stereo not given), the Potency was inconclusive [activator, full curve, poor fit].
With `COc1ccc(S(=O)(=O)N2CCOC23CCN(S(=O)(=O)c2ccc(C)cc2)CC3)cc1` the Potency was inconclusive [activator, partial curve, poor fit].
In the case of `CCc1noc(C)c1C(=O)OCC(=O)Nc1ncc(Cl)cc1Cl`, the Potency is reported as inconclusive [activator, partial curve, poor fit].
For `O=C(CSc1ccc(F)cc1)Nc1ccc2c(c1)C(=O)NC2=O`, the “activity, positive = re-replication” value was inactive: 1.85%.
For `O=[N+]([O-])c1ccc(NN=Cc2cccc3ccccc23)nc1`, the Potency was inconclusive [activator, full curve, poor fit].
With `Cc1ccc(C(=O)Nc2c(C)cc(-c3ccccc3)oc2=O)cc1` the Potency was inconclusive [activator, single point].
For `CC/C(=N/NC(=O)c1ccccc1O)c1c(C)[nH]n(-c2ccccc2)c1=O`, the Potency was inconclusive [activator, single point].
In the case of `COc1cccc(/C=N/n2c(CO)nc3ccccc32)c1OC`, the Potency is reported as inconclusive [activator, single point].
For `Cc1ccc(SC(c2ccccc2)C(Cn2cncn2)C(=O)c2ccccc2)cc1` (stereo not given), the Potency was inconclusive [activator, single point].
With `C#CCOC(=O)c1ccc(-n2cncn2)nc1` the “activity, positive = re-replication” value was inactive: 1.67%.
For `Cc1nc2c3cc(F)ccc3n(CCN3CCCCC3)c2s1`, the Potency was active: 23.1 µM.
For `CCOC(=O)C1(CCOc2ccccc2)CCN(Cc2ccc(OC)c(COC)c2)CC1`, the Potency was inconclusive [activator, partial curve, poor fit].
For `CCOC(=O)c1c(C)[nH]c(N=Nc2ccc(C)cc2)c1C`, the “activity, positive = re-replication” value was inactive: -2.6%.
With `CCOC(=O)N/N=C1\CC(C)CC(C)(C)C1` (stereo not given) the “activity, positive = re-replication” value was inactive: -4.04%.
For `COc1ccc(CCNC(=O)Cn2c(=O)n(-c3cc(F)ccc3F)c(=O)c3sccc32)cc1OC`, the “activity, positive = re-replication” value was inactive: -1.84%.
In the case of `O=C(O)c1nn(CCOc2ccc(Cl)cc2Cl)c(=O)c2ccccc12`, the Potency is reported as inconclusive [activator, partial curve, poor fit].
In the case of `Cn1cc(/C=C/c2cc[n+](C)cc2)c2cc(F)ccc21`, the Potency is reported as inconclusive [activator, full curve, poor fit].
For `O=C1NN(c2ccccc2)C(=O)/C1=C/c1ccc(Sc2cccc3ccccc23)o1`, the Potency was inconclusive [activator, single point].
In the case of `O=C(c1ccc(F)cc1)N1CCN(S(=O)(=O)c2ccc(Br)cc2)CC1`, the Potency is reported as inconclusive [activator, single point].
For `CCCCCCc1cc2cc(C(=O)Nc3ccccc3)c(=O)oc2cc1O`, the Potency was inconclusive [activator, full curve, poor fit].
With `COc1ccc(N2C(=O)CN(Cc3ccc(OC)c(OC)c3)C2=S)cc1` the Potency was inconclusive [activator, single point].
In the case of `O=C1[C@@H](Oc2ccccc2)[C@@H](c2ccncc2)N1c1ccncc1`, the Potency is reported as active: 0.184 µM.
For `Nc1ncnc2nc(SCc3ccccc3)[nH]c12`, the Potency was inconclusive [activator, single point].
With `Cc1c(C(=O)NCCSCc2c(F)cccc2Cl)cnn1-c1ccc(F)cc1` the Potency was inconclusive [activator, partial curve].
For `CCOC(=O)CCc1c(C)c2ccc3c(c2oc1=O)CN(CCCO)CO3`, the Potency was active: 7.31 µM.
For `Cc1ccc(S[C@@H](CCN2CC[C@H](NC(=O)OCc3ccccc3)CCC2=O)c2ccccc2)cc1`, the Potency was inconclusive [activator, single point].
With `Cc1[nH]cnc1C(=O)N/N=C/c1ccc([N+](=O)[O-])s1` the Potency was inconclusive [activator, single point].
In the case of `O=Cc1ccc2cccnc2n1`, the “activity, positive = re-replication” value is reported as inactive: -1.7%.
With `O=C(NCC(=O)N1CC=C(c2ccccc2)CC1)c1ccccc1Br` the Potency was active: 8.2 µM.
In the case of `O=C(NCCCN1CCCCC1)c1ccc(CS(=O)c2ccc(F)cc2)o1` (stereo not given), the “activity, positive = re-replication” value is reported as inactive: -1.42%.
For `COCCNC(=S)N(CCc1c(C)[nH]c2ccccc12)Cc1cccnc1`, the Potency was inconclusive [activator, partial curve, poor fit].
With `CC1(C)Cc2c(cnn2-c2ccccc2)-c2c1c1ccccc1n2CC(O)CBr` (stereo not given) the Potency was inconclusive [activator, single point].
For `C[C@@H](C(=O)Nc1ccc2ccccc2c1)[C@H]1C[C@]1(C)[C@H](NP(=O)(c1ccccc1)c1ccccc1)c1ccccc1`, the “activity, positive = re-replication” value was inactive: 20.6%.
With `CCOC(=O)c1c(NC(=S)N2CCN(C)CC2)sc2c1CCN(C(=O)OCC)C2` the Potency was inconclusive [activator, single point].
With `CCOCCOc1cccc(C(=O)NC(C)c2ccc3ccccc3c2)c1` (stereo not given) the Potency was inconclusive [activator, full curve, poor fit].
With `C[C@H](NC(=O)c1nc[nH]c1C(=O)N[C@@H](CCCCNC(=O)OC(C)(C)C)C(=O)OC(C)(C)C)c1ccccc1` the “activity, positive = re-replication” value was inactive: 22.6%.
In the case of `CC1CC2=C(CC1/C=N/NC(N)=S)C(C)(C)CCC2` (stereo not given), the Potency is reported as inconclusive [activator, single point].
With `Nc1nnc(N2CCCCC2)s1` the “activity, positive = re-replication” value was inactive: -12%.
For `Cc1nn(Cc2ccccc2Cl)c(C)c1NC(=O)c1cc(-c2ccc(F)cc2)on1`, the Potency was active: 4.11 µM.
In the case of `Cc1cc(NC(=O)CCN2CCCCC2)ccc1Br`, the “activity, positive = re-replication” value is reported as inactive: -0.0271%.
With `Cc1ccc(NC(=O)NNC(=O)Cn2nc(-c3ccccc3)c(-c3ccccc3)c(C#N)c2=O)cc1` the Potency was active: 1.46 µM.
For `Cc1cc(=O)[nH]c(SCC(=O)Nc2cccc(S(=O)(=O)N3CCOCC3)c2)n1`, the Potency was inconclusive [activator, single point].
With `Cc1ccc2nc(Cl)c(/C=N/NC(=O)[C@H]3C[C@@H]3c3ccccc3)cc2c1` the Potency was active: 8.2 µM.
With `CC1CCCN(C(=O)COc2ccc(-c3ccccc3)cc2)C1` (stereo not given) the Potency was inconclusive [activator, single point].
For `CCc1ccc2[nH]c(=O)c(CN(Cc3ccc(OC)cc3)Cc3nnnn3CCOC)cc2c1`, the Potency was inconclusive [activator, single point].
With `Cc1ccc(NS(=O)(=O)c2cccc(C(=O)NC3CCN(Cc4ccccc4)CC3)c2)cc1` the Potency was inconclusive [activator, single point].
With `COc1ccc(CCNc2nc(-c3cccc(NC(C)=O)c3)cs2)cc1OC` the “activity, positive = re-replication” value was inactive: 28.6%.
With `COc1ccccc1NC(=O)c1c(Nc2ccccc2C)sc(C(=O)Nc2cccc(Cl)c2)c1N` the Potency was inconclusive [activator, single point].
For `COc1ccc(NC(=O)COC(=O)Cc2cccs2)cc1OC`, the Potency was inconclusive [activator, partial curve].
With `O=C(O)Cn1cc(/C=C2/SC(=O)N(CC(=O)N3CCCCCC3)C2=O)c2ccccc21` the Potency was inconclusive [activator, single point].
For `O=C(CCSc1nnc2ccc3ccccc3n12)Nc1ccc(F)cc1`, the Potency was inconclusive [activator, single point].
For `O=C1C(=O)c2ccccc2C(O)=C1c1ccccc1F`, the “activity, positive = re-replication” value was inactive: 4.68%.
For `Cc1ccc2c(CN3CCN(S(=O)(=O)c4ccc5c(c4)OCCO5)CC3)cc(=O)oc2c1C`, the Potency was inconclusive [activator, partial curve, poor fit].
With `Cc1ccc(NC(=O)CCc2nnc(SCC(=O)Nc3ccccc3C)n2C)cc1Cl` the “activity, positive = re-replication” value was inactive: -1.53%.
With `CCOC(=O)N1CCN(c2nc(-c3ccccc3)c3ccccc3n2)CC1` the Potency was active: 8.2 µM.
For `CC1CCc2ccccc2N1CC(=O)Nc1cccc(S(=O)(=O)N2CCCC2)c1` (stereo not given), the Potency was inconclusive [activator, partial curve, poor fit].
With `O=C1N(CN2CCN(Cc3ccccc3)CC2)c2ccccc2C12OCCCO2` the Potency was inconclusive [activator, full curve, poor fit].
With `Cc1ccc(C(=O)N2CCN(c3cccc(Cl)c3)CC2)cc1C` the Potency was active: 18.4 µM.
With `CO/N=C/C(C#N)c1ncc(C(F)(F)F)cc1Cl` (stereo not given) the Potency was inconclusive [activator, single point].
In the case of `COC(=O)Cc1c(C)nc(SCc2ccccc2)[nH]c1=O`, the “activity, positive = re-replication” value is reported as inactive: -3.2%.
For `CCOc1ccccc1NC(=O)c1ccc(OCC(=O)N2CCOCC2)c(OC)c1`, the “activity, positive = re-replication” value was inactive: 0.892%.
